Experimental data: PubChem BioAssay AID485344 (National Center for Advancing Translational Sciences (NCATS), 2010)
Hit rate of the full screen: of about 340,000 compounds, about 6,900 (2%) were called active. Rule as the data show it: active = inhibition above about 30%; inactive = below that, where a call was filed. The entries are a selection whose mix differs from that of the whole data set. Entries without a call were filed so in the source.

biological target: D(2) dopamine receptor (Homo sapiens) (UniProt P14416); experiment: HTS Assay for Allosteric Antagonists of the Human D2 Dopamine Receptor: Primary Screen for Antagonists; details: HEK293 TREx D2 cells, calcium flux, dopamine EC80; at 10 µM; stronger effect = higher value; also: 0% is about no effect
UniProt P14416, sequence (P14416 whole entry, looked up): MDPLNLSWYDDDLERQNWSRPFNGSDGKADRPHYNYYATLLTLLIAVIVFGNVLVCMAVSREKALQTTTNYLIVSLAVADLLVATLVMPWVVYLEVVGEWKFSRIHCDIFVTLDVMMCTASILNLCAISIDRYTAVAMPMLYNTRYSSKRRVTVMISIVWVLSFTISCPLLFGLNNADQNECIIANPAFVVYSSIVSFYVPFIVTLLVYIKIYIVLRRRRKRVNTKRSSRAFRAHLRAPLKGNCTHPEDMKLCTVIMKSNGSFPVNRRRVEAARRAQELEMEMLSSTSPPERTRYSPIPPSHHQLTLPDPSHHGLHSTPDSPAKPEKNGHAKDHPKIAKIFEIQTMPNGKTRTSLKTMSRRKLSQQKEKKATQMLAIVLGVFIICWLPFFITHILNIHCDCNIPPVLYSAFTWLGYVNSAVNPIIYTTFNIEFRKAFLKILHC
Summary of the method: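 Tetracycline-induced HEK293 T-REx cells expressing D2 force-coupled to calcium signalling were dye-loaded, exposed to compound for 180 s, then challenged with an EC80 of dopamine; calcium flux was followed kinetically for a further 180 s.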

`Nc1nc(SCc2ccc([N+](=O)[O-])cc2)c2ncn(C3OC(CO)C(O)C3O)c2n1` (stereo not given) was tested, and the inhibition was active: 36.3%.
In the case of `CCOc1cccc(N2CCN(CCNC(=O)Nc3ccc(C)cc3)CC2)c1C`, the inhibition is reported as active: 43.9%.
In the case of `Cc1cccc(NC(=S)NC2CC3CCC(C2)N3Cc2ccco2)c1C` (stereo not given), the inhibition is reported as active: 36.1%.
`CCOC(=O)CC(NCc1ccc(OC)c(OCC)c1)c1ccc(C)cc1` (stereo not given) was tested, and the inhibition was active: 60.6%.
For `Cc1cnn(C(=O)c2cc(-c3ccccc3)nc3ccccc23)c1`, the inhibition was active: 54.9%.
For `COC(=O)c1ccc(CN(c2ccccc2OC)S(=O)(=O)c2cccs2)o1`, the inhibition was active: 36%.
For `CCN1CCCC1CNc1ncnc2c1[nH]c1ccc(F)cc12` (stereo not given), the inhibition was active: 39.5%.
`Cc1ccc(CN2CC[C@H]3C=CCc4cccc(c43)C2)cc1` was tested, and the inhibition was active: 56.7%.
In the case of `CCN(CC(=O)Nc1c(F)cccc1F)C(=O)C1COc2ccccc2O1` (stereo not given), the inhibition is reported as active: 35.7%.
For `CCOC(=O)N1CCN(CCCc2ccccc2)CC1`, the inhibition was active: 34.2%.
For `O=C1Cc2ccccc2Sc2c(OCCN3CCCCC3)cccc21`, the inhibition was active: 80.3%.
For `Cc1cc(OC(=O)c2ccco2)c(Sc2ccccc2[N+](=O)[O-])c(=O)o1`, the inhibition was active: 33.8%.
`Cc1ccccc1N(C(=O)c1csnn1)C(C(=O)NC(C)(C)C)c1cccs1` (stereo not given) was tested, and the inhibition was active: 36.5%.

First: CCC(C)NC(=O)Cn1c(=O)n(-c2ccc(C)cc2)c(=O)c2ccccc21 (stereo not given)
Second: CCc1cccc(C)c1NC(=O)Cn1ccn(-c2ccc(F)cc2)c(=O)c1=O
The inhibition of the first is lower: -2.02% for the first, 0.671% for the second.

First: CCN(CCCNC(=O)c1cc2cc3cc(C)ccc3nc2s1)c1cccc(C)c1
Second: CCN(CC)c1cc2c(cc1F)c(=O)c(S(=O)(=O)c1cc(C)ccc1C)cn2Cc1ccccc1
The inhibition of the first is lower: -16.3% for the first, 2.76% for the second.

Compared with `COc1ccc(/C=C(/C#N)c2nc(-c3ccc(-c4ccccc4)cc3)cs2)cc1`, `COc1ccc(C(=O)CN2C(=O)N(c3ccc(C(C)=O)cc3)S(=O)(=O)c3ccccc32)cc1` is lower in inhibition: 0.0602% for the first, -13.6% for the second.

Going from `Cc1ccc(C)c(NC(=O)C(=O)NCCc2csc(-c3ccc(C(F)(F)F)cc3)n2)c1` to `CCOC(=O)c1ccccc1NS(=O)(=O)c1c(-c2ccc(C)cc2)csc1C(=O)OC`, the inhibition falls from 3.42% to 0.571%.

Going from `O=C(Nc1ccc(NC(=O)c2cccs2)cc1)c1ccc(Br)cc1` to `CCc1ccc(C(=O)COC(=O)C(Cc2c[nH]c3ccccc23)NC(=O)c2ccc(Br)cc2)cc1` (stereo not given), the inhibition falls from 8.5% to -0.176%.

Compared with `CC(C)(C)C(=O)Nc1ccc2nc(SCC(=O)N3CCCC3)sc2c1`, `O=C(CSc1nc(-c2ccccc2)no1)N1CCCCC1` is higher in inhibition: -26% for the first, -8.05% for the second.

First: O=C(OCc1ccccc1Cl)c1ccc(-c2nnn(Cc3ccccc3)n2)cc1
Second: CCc1ccccc1NC(=O)CSc1ncc2c(n1)-c1ccccc1N(Cc1ccc(C)cc1)S2(=O)=O
The inhibition of the first is lower: -7.14% for the first, 8.58% for the second.

First: Cc1ccc(S(=O)(=O)c2cn(Cc3ccccc3)c3cc(N4CCCC4)c(F)cc3c2=O)cc1C
Second: Cc1c(Cl)cccc1NC(=O)CN1C(=O)COc2ccc(S(=O)(=O)Nc3ccccc3)cc21
The inhibition of the first is higher: -11.2% for the first, -18.3% for the second.

First: CCN(Cc1ccccc1)C(=O)CCNS(=O)(=O)c1ccc2c(c1)CC(C)N2C(C)=O (stereo not given)
Second: COc1ccc(S(=O)(=O)N(CCc2ccccc2)CC(=O)Nc2cccc(OC)c2)cc1
The inhibition of the first is lower: 7.03% for the first, 15.3% for the second.

First: COc1ccccc1CNS(=O)(=O)c1c(C)nc2sccn2c1=O
Second: CCOc1ccccc1-n1cc2c(c1-c1ccc(OC)cc1)c(=O)n(C)c(=O)n2C
The inhibition of the first is higher: 2.53% for the first, -13% for the second.

First: COc1cccc(CNC(=O)CCc2c(C)c3cc4c(C)c(C)oc4cc3oc2=O)c1
Second: COc1ccc(Cl)cc1NC(=O)CCc1c(C)nc2c(c1C)c(=O)n(C)c(=O)n2C
The inhibition of the first is higher: 15.3% for the first, 5.02% for the second.

Compared with `Cc1nc(-c2ccccc2)sc1CCNC(=O)c1ccco1`, `COc1ccc(-c2nc3sc(CCNC(=O)c4cc(Cl)ccc4OC)c(C)n3n2)cc1` is lower in inhibition: -0.034% for the first, -13.6% for the second.

Going from `CCN(C(=O)Cn1ncc2c1-c1cc(C)ccc1OC2)c1cc(Cl)ccc1OC` to `COc1ccc(NC(=O)c2ccc3c(c2)CCN3S(=O)(=O)c2ccc(C)cc2)cc1Cl`, the inhibition rises from 6.39% to 23.4%.

Going from `Cc1ccc(NC(=O)CN(C)S(=O)(=O)c2ccc3nc(C)sc3c2)c(C)c1` to `Cc1nc2ccc(S(=O)(=O)N(C)CC(=O)Nc3ccc(Br)c(C)c3)cc2s1`, the inhibition rises from -6.75% to 2.28%.

Compared with `COc1cc(NC(=O)CSc2nc3nc(C)c(Cc4ccc(C)cc4)c(C)n3n2)cc(OC)c1`, `Cc1ccc(Cn2nnc(C(=O)Nc3ccc(F)c(F)c3)c2N)cc1` is lower in inhibition: 25.5% for the first, 23.1% for the second.

Going from `CCCSCCCNC(=O)c1ccc(Cn2c(=O)c3cccn3c3cccnc32)cc1` to `CCOC(=O)c1cccc(NC(=O)C(C)n2c(C)c3cnn(-c4ccccc4)c(=O)c3c2C)c1` (stereo not given), the inhibition falls from -0.279% to -14.5%.

Compared with `CCCOC(=O)CSc1nnc2ccc3ccccc3n12`, `CCOc1ccccc1-n1nnc(-c2nc(-c3ccccc3)no2)c1N` is higher in inhibition: -14.2% for the first, 4.62% for the second.

Compared with `O=C(CSc1nc2ccccc2nc1Cc1ccccc1)Nc1ccc2c(c1)OCO2`, `O=C1CC(c2ccccc2)Cc2[nH]c(=O)c(C(=O)Nc3cccc(Cl)c3)cc21` (stereo not given) is lower in inhibition: 9.24% for the first, -0.135% for the second.

First: Cc1ccc(N(C)C(=O)C2CCN(S(=O)(=O)c3ccc4c(c3)CCCN4C(=O)C3CCC3)CC2)cc1
Second: CCOC(=O)c1cccc(NC(=O)C2CCN(S(=O)(=O)c3ccc4c(c3)oc(=O)n4C)CC2)c1
The inhibition of the first is higher: -4.69% for the first, -16.3% for the second.

First: COC(=O)c1ccc(NC(=O)CN2CCN(c3ccc(Cl)cc3)CC2)cc1
Second: Cc1ccccc1-c1nn2c(=O)cc(CN3CCN(C(=O)c4ccc(C(C)(C)C)cc4)CC3)nc2s1
The inhibition of the first is higher: 3.05% for the first, -4.81% for the second.

First: CCOc1ccc(C2CC(=O)c3c([nH]c(C(=O)OCc4ccccc4)c3C)C2)cc1 (stereo not given)
Second: CCOc1ccc(C2=NC(c3cccs3)=Nc3ccc(C(C)C)cc3N2)cc1
The inhibition of the first is higher: 6.87% for the first, -3.22% for the second.

First: COc1ccc(CCN2C(=O)c3oc4ccc(F)cc4c(=O)c3C2c2ccc(C(C)(C)C)cc2)cc1 (stereo not given)
Second: CCOc1ccc(C2c3cc(OCC)c(OCC)cc3CC(=O)N2c2ccc(C(=O)O)cc2)cc1OCC (stereo not given)
The inhibition of the first is lower: -5.63% for the first, 0.879% for the second.

First: COc1ccccc1N1CCN(c2ncnc3c2cnn3C)CC1
Second: Cc1cccc(CC2C(=O)Nc3ccccc32)c1 (stereo not given)
The inhibition of the first is higher: -4.24% for the first, -7.96% for the second.

`CCOC(=O)c1c(NC(=O)c2ccc(S(=O)(=O)N(CCOC)CCOC)cc2)sc2c1CC(C)(C)NC2(C)C` showed an inhibition of 24.7%.
